# Source: the supplement of paper PMC8728848
# This is one part of the list.
# B1: MAL-II (Maackia amurensis), P93248 (protein)
# chain: ATSNSKPTQVLLATFLTFFFLLLNNVNSSDELSFTINNFVPNEADLLFQGEASVSSTGVLQLTRVENGQPQQYSVGRALYAAPVRIWDNTTGSVASFSTSFTFVVKAPNPTITSDGLAFFLAPPDSQIPSGRVSKYLGLFNNSNSDSSNQIVAVEFDTYFGHSYDPWDPNYRHIGIDVNGIESIKTVQWDWINGGVAFATITYLAPNKTLIASLVYPSNQTSFIVAASVDLKEILPEWVRVGFSAATGYPTQVETHDVLSWSFTSTLEANSDAATENNVHIARYTA
# Columns and labels:
# Assay in all cases: glycan array binding signal (z-score within array); higher = stronger binding
# Conditions in all cases: glycan notation: IUPAC condensed, linker removed
# [1] = target: Gal(b1-3)GlcNAc(b1-3)Gal(b1-4)GlcNAc(b1-2)[Gal(b1-3)GlcNAc(b1-3)Gal(b1-4)GlcNAc(b1-6)]Man(a1-6)[Gal(b1-3)GlcNAc(b1-3)Gal(b1-4)GlcNAc(b1-2)Man(a1-3)]Man(b1-4)GlcNAc(b1-4)[Fuc(a1-6)]GlcNAc
# Summary of the method: (§1)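 From the Consortium for Functional Glycomics database, 3228 arrays were curated, keeping only those whose protein sequence was available. Binding is given as a within-array Z-score averaged across arrays sharing a protein sequence and across linkers. Negative Z-scores can be read as non-binding.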
# [2] = target: Gal(b1-3)GlcNAc(b1-3)Gal(b1-4)GlcNAc(b1-3)Gal(b1-4)GlcNAc(b1-2)[Gal(b1-3)GlcNAc(b1-3)Gal(b1-4)GlcNAc(b1-3)Gal(b1-4)GlcNAc(b1-6)]Man(a1-6)[Gal(b1-3)GlcNAc(b1-3)Gal(b1-4)GlcNAc(b1-3)Gal(b1-4)GlcNAc(b1-2)Man(a1-3)]Man(b1-4)GlcNAc(b1-4)[Fuc(a1-6)]GlcNAc
# Summary of the method: as §1
# [3] = target: Gal(b1-3)GlcNAc(b1-3)Gal(b1-4)GlcNAc(b1-6)[Gal(b1-3)GlcNAc(b1-3)]Gal(b1-4)Glc
# Summary of the method: as §1
# [4] = target: Gal(b1-3)GlcNAc(b1-3)Gal(b1-4)[Fuc(a1-3)]GlcNAc
# Summary of the method: as §1
# [5] = target: Gal(b1-3)GlcNAc(b1-3)Gal(b1-4)[Fuc(a1-3)]GlcNAc(b1-6)[Gal(b1-3)GlcNAc(b1-3)]Gal(b1-4)Glc
# Summary of the method: as §1
# [6] = target: Gal(b1-3)GlcNAc(b1-3)GalNAc
# Summary of the method: as §1
# [7] = target: Gal(b1-3)GlcNAc(b1-6)Gal(b1-4)GlcNAc
# Summary of the method: as §1
# [8] = target: Gal(b1-3)GlcNAc(b1-6)GalNAc
# Summary of the method: as §1
# [9] = target: Gal(b1-3)GlcNAc(b1-6)[Gal(b1-3)]GalNAc
# Summary of the method: as §1
# [10] = target: Gal(b1-3)GlcNAc6S
# Summary of the method: as §1
# [11] = target: Gal(b1-3)[Fuc(a1-4)]GlcNAc
# Summary of the method: as §1
# [12] = target: Gal(b1-3)[Fuc(a1-4)]GlcNAc(b1-2)Man
# Summary of the method: as §1
# [13] = target: Gal(b1-3)[Fuc(a1-4)]GlcNAc(b1-2)Man(a1-3)[Gal(b1-3)[Fuc(a1-4)]GlcNAc(b1-2)Man(a1-6)]Man(b1-4)GlcNAc(b1-4)GlcNAc
# Summary of the method: as §1
# [14] = target: Gal(b1-3)[Fuc(a1-4)]GlcNAc(b1-2)Man(a1-3)[Gal(b1-3)[Fuc(a1-4)]GlcNAc(b1-2)Man(a1-6)]Man(b1-4)GlcNAc(b1-4)[Fuc(a1-6)]GlcNAc
# Summary of the method: as §1
# [15] = target: Gal(b1-3)[Fuc(a1-4)]GlcNAc(b1-3)Gal(b1-3)[Fuc(a1-4)]GlcNAc
# Summary of the method: as §1
# [16] = target: Gal(b1-3)[Fuc(a1-4)]GlcNAc(b1-3)Gal(b1-4)GlcNAc
# Summary of the method: as §1
# [17] = target: Gal(b1-3)[Fuc(a1-4)]GlcNAc(b1-3)Gal(b1-4)[Fuc(a1-3)]GlcNAc
# Summary of the method: as §1
# [18] = target: Gal(b1-3)[Fuc(a1-4)]GlcNAc(b1-6)GalNAc
# Summary of the method: as §1
# [19] = target: Gal(b1-3)[GlcNAc(b1-6)]GalNAc
# Summary of the method: as §1
# [20] = target: Gal(b1-3)[Neu5Ac(a2-6)]GalNAc
# Summary of the method: as §1
# [21] = target: Gal(b1-3)[Neu5Ac(a2-6)]GlcNAc(b1-4)Gal(b1-4)Glc
# Summary of the method: as §1
# [22] = target: Gal(b1-3)[Neu5Ac(a2-6)]GlcNAc(b1-6)Gal(b1-4)Glc
# Summary of the method: as §1
# [23] = target: Gal(b1-3)[Neu5Ac(b2-6)]GalNAc
# Summary of the method: as §1
# [24] = target: Gal(b1-4)Gal
# Summary of the method: as §1
# [25] = target: Gal(b1-4)GalNAc(a1-3)[Fuc(a1-2)]Gal(b1-4)GlcNAc
# Summary of the method: as §1
# [26] = target: Gal(b1-4)GalNAc(b1-3)[Fuc(a1-2)]Gal(b1-4)GlcNAc
# Summary of the method: as §1
# [27] = target: Gal(b1-4)Glc
# Summary of the method: as §1
# [28] = target: Gal(b1-4)Glc6S
# Summary of the method: as §1
# [29] = target: Gal(b1-4)GlcNAc
# Summary of the method: as §1
# [30] = target: Gal(b1-4)GlcNAc(a1-6)Gal(b1-4)GlcNAc
# Summary of the method: as §1
# [31] = target: Gal(b1-4)GlcNAc(b1-2)Man
# Summary of the method: as §1
# [32] = target: Gal(b1-4)GlcNAc(b1-2)Man(a1-3)Man(b1-4)GlcNAc(b1-4)GlcNAc
# Summary of the method: as §1
# [33] = target: Gal(b1-4)GlcNAc(b1-2)Man(a1-3)[Gal(b1-4)GlcNAc(b1-2)Man(a1-6)]Man(b1-4)GlcNAc(b1-4)GlcNAc
# Summary of the method: as §1
# [34] = target: Gal(b1-4)GlcNAc(b1-2)Man(a1-3)[Gal(b1-4)GlcNAc(b1-2)Man(a1-6)]Man(b1-4)GlcNAc(b1-4)[Fuc(a1-6)]GlcNAc
# Summary of the method: as §1
# [35] = target: Gal(b1-4)GlcNAc(b1-2)Man(a1-3)[Gal(b1-4)GlcNAc(b1-2)Man(a1-6)][Gal(b1-4)GlcNAc(b1-4)]Man(b1-4)GlcNAc(b1-4)[Fuc(a1-6)]GlcNAc
# Summary of the method: as §1
# [36] = target: Gal(b1-4)GlcNAc(b1-2)Man(a1-3)[Gal(b1-4)GlcNAc(b1-2)Man(a1-6)][GlcNAc(b1-4)]Man(b1-4)GlcNAc(b1-4)[Fuc(a1-6)]GlcNAc
# Summary of the method: as §1
# [37] = target: Gal(b1-4)GlcNAc(b1-2)Man(a1-3)[GlcNAc(b1-2)Man(a1-6)]Man(b1-4)GlcNAc(b1-4)GlcNAc
# Summary of the method: as §1
binder,measurement,setting,value
B1,glycan array binding signal (z-score),[1],-0.334
same,glycan array binding signal (z-score),[2],0.068
same,glycan array binding signal (z-score),[3],-0.249
same,glycan array binding signal (z-score),[4],-0.234
same,glycan array binding signal (z-score),[5],-0.193
same,glycan array binding signal (z-score),[6],-0.226
same,glycan array binding signal (z-score),[7],-0.286
same,glycan array binding signal (z-score),[8],-0.274
same,glycan array binding signal (z-score),[9],-0.089
same,glycan array binding signal (z-score),[10],-0.3
same,glycan array binding signal (z-score),[11],-0.215
same,glycan array binding signal (z-score),[12],-0.173
same,glycan array binding signal (z-score),[13],-0.217
same,glycan array binding signal (z-score),[14],-0.045
same,glycan array binding signal (z-score),[15],-0.22
same,glycan array binding signal (z-score),[16],-0.226
same,glycan array binding signal (z-score),[17],-0.209
same,glycan array binding signal (z-score),[18],0.689
same,glycan array binding signal (z-score),[19],-0.217
same,glycan array binding signal (z-score),[20],0.239
same,glycan array binding signal (z-score),[21],-0.202
same,glycan array binding signal (z-score),[22],-0.228
same,glycan array binding signal (z-score),[23],-0.33
same,glycan array binding signal (z-score),[24],-0.074
same,glycan array binding signal (z-score),[25],-0.198
same,glycan array binding signal (z-score),[26],-0.263
same,glycan array binding signal (z-score),[27],-0.219
same,glycan array binding signal (z-score),[28],-0.235
same,glycan array binding signal (z-score),[29],-0.219
same,glycan array binding signal (z-score),[30],-0.225
same,glycan array binding signal (z-score),[31],-0.194
same,glycan array binding signal (z-score),[32],-0.199
same,glycan array binding signal (z-score),[33],-0.218
same,glycan array binding signal (z-score),[34],-0.167
same,glycan array binding signal (z-score),[35],-0.155
same,glycan array binding signal (z-score),[36],-0.223
same,glycan array binding signal (z-score),[37],-0.218
